Data taken from PubChem BioAssay AID686979 (National Center for Advancing Translational Sciences (NCATS), 2013).
In all, about 420,000 compounds went through this assay and about 50,000 (12%) were called active. The inconclusive results got no clear call from the source; some entries with a clear call stand among them for comparison. Calls come from the whole dose curve; as a rule, active = well fitted inhibition curve with a large enough effect; inconclusive = small, poorly fitted or top-dose-only effect; inactive = flat fitted curve, though single readings scatter. Potencies of inconclusive entries are left out as doubtful fits.
% is set by controls: 0 for no effect and ±100 for the full control effect; potency is the fitted concentration of half-maximal effect; tags give direction and shape of the fitted curve.

Assay: qHTS for Inhibitors of human tyrosyl-DNA phosphodiesterase 1 (TDP1): qHTS in cells in presence of CPT; note: nearly all actives have a fitted effect of over 55% in size
Conditions: chicken DT40 Tdp1-/-;hTDP1 cells + 20 nM CPT, ATP luminescence, 48 h; activity change, negative = growth inhibition: at 46.2 µM (top of the series) unless noted
In short: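 Cell growth measured by CellTiter-Glo luminescence after a minimum 48 h, 37 C compound exposure with 20 nM CPT in Tdp1-knockout DT40 cells stably expressing hTDP1, seeded 400/well; qHTS titration format.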
With COc1ccc(Cc2nc3c4cnn(-c5ccccc5Br)c4ncn3n2)cc1 the Potency was inconclusive [inhibitor, single point].
In the case of NC(=O)C1CCN(C(=O)OCc2ccccc2)CC1, the Potency is reported as “inactive”.
In the case of CC1CCCCC1NCC(=O)Nc1ccccc1-c1ccccc1 (stereo unspecified), the Potency is reported as inconclusive [inhibitor, single point].
With Cc1cccc(CCN2C(N(C)C)=NC[C@@H]2Cc2ccccc2)c1 the Potency was inconclusive [inhibitor, partial curve, poor fit].
In the case of O=C(CSCc1cc(=O)n2nc(C3CC3)sc2n1)Nc1ccc(F)cc1, the Potency is reported as “inactive”.
For COc1cc(/C=N/N2CCN(C3c4ccccc4-c4ccccc43)CC2)ccc1O, the Potency was active: 25.9 µM.
In the case of COc1ccc(/C=C/C(=O)Oc2cccc(/C=N/NC(=O)COc3c(C)cccc3C)c2)cc1, the Potency is reported as active: 20.6 µM.
In the case of O=C(NN=C1CCCCCCC1)c1ccc(F)cc1, the Potency is reported as inconclusive [inhibitor, single point].
In the case of COc1ccc(C2C(Oc3ccccc3)C(=O)N2c2ccc(C)c(C)c2)cc1OC (stereo unspecified), the Potency is reported as inconclusive [inhibitor, single point].
With COc1cc(-c2nc3cnccn3c2Nc2ccc3c(c2)OCCO3)ccc1O the Potency was inconclusive [inhibitor, partial curve, poor fit].
For Cc1cc(NC(=O)c2cc(-c3ccccc3C)nc3ccccc23)no1, the Potency was inconclusive [inhibitor, single point].
For COc1ccc(/C=C/C(=O)Nc2ccc(Cl)c(Cl)c2)cc1OC, the Potency was inconclusive [inhibitor, single point].
For CC(=O)Nc1ccc(NC(=O)Nc2sc3nc4n(c(=O)c3c2C)CCC(C)CC4)cc1 (stereo unspecified), the Potency was “inactive”.
In the case of CC(C)(C)c1ccc(C(=O)c2cn[nH]c2-c2ccccc2O)cc1, the Potency is reported as inconclusive [inhibitor, single point].
In the case of CCOCCCNC(=O)c1ccc2c(c1)N(CC)C(=O)c1ccccc1S2=O (stereo unspecified), the Potency is reported as inconclusive [inhibitor, single point].
With CCC(Oc1ccccc1)C(=O)Nc1nnc(C(F)(F)F)s1 (stereo unspecified) the Potency was inconclusive [inhibitor, single point].
With CCC(=O)N1Cc2cc(C(=O)NCC(F)(F)F)nc(-c3cccc(-c4cncnc4)c3)c2[C@@H]1CCO the Potency was active: 20.6 µM.
For O=C(COc1ccc(Br)cc1CO)Nc1ccc(S(=O)(=O)N2CCCC2)cc1, the Potency was inconclusive [inhibitor, single point].
With O=C(CNC(=O)c1ccc(Cl)cc1Cl)OCn1nnc2ccccc2c1=O the Potency was inconclusive [inhibitor, single point].
For CC1(c2ccc(Cl)cc2Cl)NC(=O)N(CC(=O)NCCC2=CCCCC2)C1=O (stereo unspecified), the Potency was inconclusive [inhibitor, single point].
With CCOc1ccc2oc(=O)cc(CN3CCN(C(=O)c4ccc(Cl)cc4)CC3)c2c1 the activity change, negative = growth inhibition was inconclusive: -30.8% [inhibitor].
With CN(c1ccccc1)S(=O)(=O)c1ccc(C(=O)N2CCc3ccccc3C2)cc1 the Potency was inconclusive [inhibitor, single point].
In the case of Cc1cccc(N(C)C(=O)C2CCN(S(=O)(=O)c3cccc4nonc34)CC2)c1, the Potency is reported as inconclusive [inhibitor, single point].
For COc1ccc(OC)c(NC(=O)c2ccc(-c3nc(COc4ccccc4)c(C)o3)cc2)c1, the Potency was inconclusive [inhibitor, full curve].
With CC(C)S(=O)(=O)c1csc(NC(=O)Nc2ccc(Cl)cc2)c1Cl the Potency was inconclusive [inhibitor, single point].
For COC(=O)C1=NN(c2ccccc2)C2(S1)S/C(=C\c1ccccc1)C(=O)N2c1ccccc1 (stereo unspecified), the Potency was inconclusive [inhibitor, single point].
For CCCCOc1ccccc1N, the Potency was inconclusive [inhibitor, single point].
For Cc1c(NC(=O)c2cc3ccccc3o2)cccc1-c1nc2ccccc2o1, the Potency was inconclusive [inhibitor, single point].
With COc1ccc(N=Nc2cnc(C)nc2-c2ccccc2)cc1 the Potency was inconclusive [inhibitor, single point].
With Cc1ccc(CN2CCN(CC(=O)NC(C)CCc3ccccc3)C2=O)cc1 (stereo unspecified) the Potency was inconclusive [inhibitor, single point].
With CCN1CCN(c2ccc(S(=O)(=O)N3CCOCC3)cc2NC(=O)c2ccc(Cl)cc2Cl)CC1 the Potency was inconclusive [inhibitor, single point].
For COc1ccc2nc(SCC(=O)N3CCCCCC3)c(C#N)cc2c1, the Potency was inconclusive [inhibitor, single point].
In the case of COc1ccc(N(CC(=O)N2CCN(c3ccccc3F)CC2)S(=O)(=O)c2ccc(C)cc2)cc1, the Potency is reported as inconclusive [inhibitor, single point].
In the case of CC(C)CC(=O)Nc1sc2c(c1C#N)CC(C)(C)NC2(C)C, the Potency is reported as inconclusive [inhibitor, single point].
With O=C1c2ccccc2NC(c2ccccc2O)N1Cc1ccco1 (stereo unspecified) the Potency was inconclusive [inhibitor, single point].
For O=C(COc1c(Br)cc(Br)c2cccnc12)N1CCc2ccccc2C1, the Potency was inconclusive [inhibitor, single point].
In the case of Cc1ccc(-n2c(=S)[nH]c3sc4c(c3c2=O)CCC4)cc1, the Potency is reported as “inactive”.
In the case of CC1Sc2ccc(S(=O)(=O)NCc3ccccc3)cc2NC1=O (stereo unspecified), the Potency is reported as inconclusive [inhibitor, partial curve].
In the case of COc1ccc(OC)c(NC(=O)Cn2cc(C(=O)c3cccs3)c3ccccc32)c1, the Potency is reported as inconclusive [inhibitor, single point].
For Cc1ccc(C(C)C)c(OCCSc2nc(-c3cccs3)nc3cc(=O)[nH]n23)c1, the Potency was inconclusive [inhibitor, single point].
In the case of Cc1ccccc1OCCn1cc(C(=S)N2CCCC2)c2ccccc21, the Potency is reported as inconclusive [inhibitor, single point].
